From the supplement of paper PMC7125110
± gives the standard error. This sample is rich in variants without activity.

B1: glmS ribozyme (parent)
chain: AUAAAAGCGCCAGAACUACAGAAAUGUAGUUGACGAGGAGGAGGUUUAUCGAAUUUUCGGCGGAUGCCUCCAAA

Variants of: B1
Test: self-cleavage kobs at 10000 uM GlcN6P; higher = faster cleavage; RNA array
Conditions: with glucosamine-6-phosphate
Summary of the method: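 Barcoded ribozyme variants on sequenced MiSeq chips were transcribed in situ by E. coli RNA polymerase and followed at 37 °C through a hybridised Cy3 probe. Glucosamine-6-phosphate at 40 μM to 10 mM in HEPES/KCl/Mg(OAc)2 buffer was flowed in, and tiles were imaged over ~14 h. Signals were normalised to baseline and to non-cleaving reference variants, and per-tile medians were fit to one- or two-exponential decays to give kobs. Weighted Michaelis–Menten fits across concentrations gave kcat and KM.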

Variant | self-cleavage kobs at 10000 uM GlcN6P
A39C G43A G60A C68U | < 1e-05 s⁻¹
A39U G41C A52C A53U U55G | < 1e-05 s⁻¹
G44A U56C C61U G63U | < 1e-05 s⁻¹
U47A G60U | < 1e-05 s⁻¹
G51C G63U U65G C67G | < 1e-05 s⁻¹
A42C G44A U45G A52C C68G | < 1e-05 s⁻¹
U45C U65G C70U | 0.000225 ± 6.1e-05 s⁻¹
G38U A39C G40U G43U U54C | < 1e-05 s⁻¹
U46A G62C C71U | < 1e-05 s⁻¹
U45A A53G U55A U65A C67A | 0.000759 ± 0.00025 s⁻¹
C50U G62U G66U | < 1e-05 s⁻¹
G44A U45A C58G | < 1e-05 s⁻¹
C50A G60C | < 1e-05 s⁻¹
U47C G51A U57G | < 1e-05 s⁻¹
A48G U49G | 5.7e-05 ± 2.1e-05 s⁻¹
G38U G43C A53C C68A | < 1e-05 s⁻¹
G43C U57G C58A | < 1e-05 s⁻¹
U56G C58U C67A | 3.62e-05 ± 1.5e-05 s⁻¹
C50A A52G | < 1e-05 s⁻¹
A39G U56G C68U | 0.00322 ± 0.0012 s⁻¹
G41C G60C U69A | < 1e-05 s⁻¹

Variant | self-cleavage kobs at 10000 uM GlcN6P
G41A C61U A64C | < 1e-05 s⁻¹
A42G A52C G60U C67A | < 1e-05 s⁻¹
A42G U55A C68G | 7.44e-05 ± 2e-05 s⁻¹
A42U A64C C70U C71U | < 1e-05 s⁻¹
A39G U45C C67A | 0.00692 ± 0.0024 s⁻¹
G41A C61U A64G C71U | < 1e-05 s⁻¹
U55C U69A C70U | < 1e-05 s⁻¹
A39C G63U C71U | < 1e-05 s⁻¹
G40C G43A A48C U65G | < 1e-05 s⁻¹
U55C C61A | < 1e-05 s⁻¹
A39C U55G C70U | 0.000211 ± 4e-05 s⁻¹
U46G C61U G62A | < 1e-05 s⁻¹
U55A G62C C71U | < 1e-05 s⁻¹
A39C G44C G60U | < 1e-05 s⁻¹
A39C A48G C70A | < 1e-05 s⁻¹
A39U A48G G60A | < 1e-05 s⁻¹
U46A U47G A48G A52U C58U C68G | < 1e-05 s⁻¹
G51U U55C C67U U69G | < 1e-05 s⁻¹
U49C G66U C71U | < 1e-05 s⁻¹
G41U C67G C68A | 0.000314 ± 0.00012 s⁻¹
U49G G60U A64C | < 1e-05 s⁻¹
